Measured values reported in the supplement of paper PMC8728848.
Some of the results follow.

Tests used:
Test in all cases: glycan array binding signal (z-score within array); higher = stronger binding
Conditions in all cases: glycan notation: IUPAC condensed, linker removed
[1] = molecular target: Fuc(a1-2)Gal(b1-4)GlcNAc(b1-2)[Fuc(a1-2)Gal(b1-4)GlcNAc(b1-4)]Man(a1-3)[Fuc(a1-2)Gal(b1-4)GlcNAc(b1-2)Man(a1-6)]Man(b1-4)GlcNAc(b1-4)GlcNAc
Procedure, shortened: (§1)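 Glycan array binding is given as a within-array Z-score, which can be read as non-binding when negative. The arrays, 3228 of them, came from the Consortium for Functional Glycomics database and were retained only where the protein sequence was available. Z-scores were averaged across arrays of the same protein sequence at different concentrations or buffers and across linkers.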

[2] = molecular target: Fuc(a1-2)Gal(b1-4)GlcNAc(b1-3)Gal(b1-4)GlcNAc
Procedure, shortened: as §1

[3] = molecular target: Fuc(a1-2)Gal(b1-4)GlcNAc(b1-3)Gal(b1-4)GlcNAc(b1-2)Man(a1-3)[Fuc(a1-2)Gal(b1-4)GlcNAc(b1-3)Gal(b1-4)GlcNAc(b1-2)Man(a1-6)]Man(b1-4)GlcNAc(b1-4)GlcNAc
Procedure, shortened: as §1

[4] = molecular target: Fuc(a1-2)Gal(b1-4)GlcNAc(b1-3)Gal(b1-4)GlcNAc(b1-3)Gal(b1-4)GlcNAc
Procedure, shortened: as §1

[5] = molecular target: Fuc(a1-2)Gal(b1-4)GlcNAc(b1-3)GalNAc
Procedure, shortened: as §1

[6] = molecular target: Fuc(a1-2)Gal(b1-4)GlcNAc(b1-3)[Fuc(a1-2)Gal(b1-4)GlcNAc(b1-6)]GalNAc
Procedure, shortened: as §1

[7] = molecular target: Fuc(a1-2)Gal(b1-4)GlcNAc(b1-3)[Fuc(a1-3)[Gal(b1-4)]GlcNAc(b1-6)]Gal(b1-4)Glc
Procedure, shortened: as §1

[8] = molecular target: Fuc(a1-2)Gal(b1-4)GlcNAc(b1-6)GalNAc
Procedure, shortened: as §1

[9] = molecular target: Fuc(a1-2)Gal(b1-4)GlcNAc6S
Procedure, shortened: as §1

[10] = molecular target: Fuc(a1-2)Gal(b1-4)[Fuc(a1-3)]GlcNAc
Procedure, shortened: as §1

[11] = molecular target: Fuc(a1-2)Gal(b1-4)[Fuc(a1-3)]GlcNAc(b1-2)Man(a1-3)[Fuc(a1-2)Gal(b1-4)[Fuc(a1-3)]GlcNAc(b1-2)Man(a1-6)]Man(b1-4)GlcNAc(b1-4)GlcNAc
Procedure, shortened: as §1

[12] = molecular target: Fuc(a1-2)Gal(b1-4)[Fuc(a1-3)]GlcNAc(b1-2)Man(a1-3)[Fuc(a1-2)Gal(b1-4)[Fuc(a1-3)]GlcNAc(b1-2)Man(a1-6)]Man(b1-4)GlcNAc(b1-4)[Fuc(a1-6)]GlcNAc
Procedure, shortened: as §1

[13] = molecular target: Fuc(a1-2)Gal(b1-4)[Fuc(a1-3)]GlcNAc(b1-2)[Fuc(a1-2)Gal(b1-4)[Fuc(a1-3)]GlcNAc(b1-4)]Man(a1-3)[Fuc(a1-2)Gal(b1-4)[Fuc(a1-3)]GlcNAc(b1-2)Man(a1-6)]Man(b1-4)GlcNAc(b1-4)GlcNAc
Procedure, shortened: as §1

[14] = molecular target: Fuc(a1-2)Gal(b1-4)[Fuc(a1-3)]GlcNAc(b1-3)Gal(b1-4)[Fuc(a1-3)]GlcNAc
Procedure, shortened: as §1

[15] = molecular target: Fuc(a1-2)Gal(b1-4)[Fuc(a1-3)]GlcNAc(b1-3)Gal(b1-4)[Fuc(a1-3)]GlcNAc(b1-3)Gal(b1-4)[Fuc(a1-3)]GlcNAc
Procedure, shortened: as §1

[16] = molecular target: Fuc(a1-2)Gal(b1-4)[Fuc(a1-3)]GlcNAc(b1-3)GalNAc
Procedure, shortened: as §1

[17] = molecular target: Fuc(a1-2)Gal(b1-4)[Fuc(a1-3)]GlcNAc(b1-3)[Neu5Ac(a2-6)Gal(b1-4)GlcNAc(b1-6)]Gal(b1-4)Glc
Procedure, shortened: as §1

[18] = molecular target: Fuc(a1-2)Gal3S(b1-4)GlcNAc
Procedure, shortened: as §1

[19] = molecular target: Fuc(a1-2)Gal6S(b1-3)GlcNAc
Procedure, shortened: as §1

[20] = molecular target: Fuc(a1-2)Gal6S(b1-3)GlcNAc6S
Procedure, shortened: as §1

[21] = molecular target: Fuc(a1-2)Gal6S(b1-4)Glc
Procedure, shortened: as §1

[22] = molecular target: Fuc(a1-2)Gal6S(b1-4)Glc6S
Procedure, shortened: as §1

[23] = molecular target: Fuc(a1-2)Gal6S(b1-4)GlcNAc
Procedure, shortened: as §1

[24] = molecular target: Fuc(a1-2)[Gal(a1-3)]Gal
Procedure, shortened: as §1

[25] = molecular target: Fuc(a1-2)[Gal(a1-3)]Gal(b1-3)GalNAc
Procedure, shortened: as §1

[26] = molecular target: Fuc(a1-2)[Gal(a1-3)]Gal(b1-3)GalNAc(b1-3)Gal(a1-4)Gal(b1-4)Glc
Procedure, shortened: as §1

[27] = molecular target: Fuc(a1-2)[Gal(a1-3)]Gal(b1-3)GlcNAc
Procedure, shortened: as §1

[28] = molecular target: Fuc(a1-2)[Gal(a1-3)]Gal(b1-3)GlcNAc(b1-2)Man(a1-3)[Fuc(a1-2)[Gal(a1-3)]Gal(b1-3)GlcNAc(b1-2)Man(a1-6)]Man(b1-4)GlcNAc(b1-4)GlcNAc
Procedure, shortened: as §1

[29] = molecular target: Fuc(a1-2)[Gal(a1-3)]Gal(b1-3)GlcNAc(b1-2)Man(a1-3)[Fuc(a1-2)[Gal(a1-3)]Gal(b1-3)GlcNAc(b1-2)Man(a1-6)]Man(b1-4)GlcNAc(b1-4)[Fuc(a1-6)]GlcNAc
Procedure, shortened: as §1

[30] = molecular target: Fuc(a1-2)[Gal(a1-3)]Gal(b1-3)GlcNAc(b1-3)GalNAc
Procedure, shortened: as §1

B1: HPAIIITrx (Helix pomatia), Q1KM18 (protein)
chain: MLFVTIISLGLLAIVHGQCALKTIAFSAAIDREQTFDANQVVIYDIVITNHGNAYDNSTGLFTAPVDGMYSFQLNLLTIKEKEGWLELVHNGQLKVSVYAKQDSTYDSSSNSVIIKMKEGDRVNVRAHKKSGLFGRDDELYNTFSGHFLSGL
- glycan array binding signal (z-score) [1]: 0.135
- glycan array binding signal (z-score) [2]: -0.217
- glycan array binding signal (z-score) [3]: -0.118
- glycan array binding signal (z-score) [4]: -0.257
- glycan array binding signal (z-score) [5]: -0.262
- glycan array binding signal (z-score) [6]: -0.226
- glycan array binding signal (z-score) [7]: -0.478
- glycan array binding signal (z-score) [8]: -0.196
- glycan array binding signal (z-score) [9]: -0.492
- glycan array binding signal (z-score) [10]: -0.183
- glycan array binding signal (z-score) [11]: 0.601
- glycan array binding signal (z-score) [12]: -0.238
- glycan array binding signal (z-score) [13]: 0.147
- glycan array binding signal (z-score) [14]: 0.407
- glycan array binding signal (z-score) [15]: 0.375
- glycan array binding signal (z-score) [16]: 0.107
- glycan array binding signal (z-score) [17]: -0.406
- glycan array binding signal (z-score) [18]: -0.472
- glycan array binding signal (z-score) [19]: -0.368
- glycan array binding signal (z-score) [20]: 0.436
- glycan array binding signal (z-score) [21]: -0.211
- glycan array binding signal (z-score) [22]: 0.032
- glycan array binding signal (z-score) [23]: -0.778
- glycan array binding signal (z-score) [24]: -0.256
- glycan array binding signal (z-score) [25]: -0.358
- glycan array binding signal (z-score) [26]: -0.468
- glycan array binding signal (z-score) [27]: 0.359
- glycan array binding signal (z-score) [28]: -0.289
- glycan array binding signal (z-score) [29]: -0.062
- glycan array binding signal (z-score) [30]: -0.158
